Laboratory results from the CheMixHub viscosity set.
This continues a long series; more values of the same kind are listed elsewhere.

Legend:
[1] = xn = mol fraction of the nth substance listed

CCCCn1cc[n+](C)c1.CCOS(=O)(=O)[O-]
Conditions	viscosity [mPa·s]
298.15 K, 100 kPa	255.2

CCn1cc[n+](C)c1.F[B-](F)(F)F
Conditions	viscosity [mPa·s]
293.15 K, 100 kPa	34.6
298.15 K, 101 kPa	35.8
299.15 K, 101 kPa	34.52
301.15 K, 101 kPa	32.15
302.15 K, 101 kPa	31.06
303.15 K, 100 kPa	24.2
304.15 K, 101 kPa	29.01
305.15 K, 101 kPa	28.13
307.15 K, 101 kPa	26.38
308.15 K, 101 kPa	25.54
313.15 K, 100 kPa	17.8
323.15 K, 100 kPa	13.5

CCNc1ccccc1 + COC(C)(C)C
viscosity [mPa·s], [1], 101 kPa
Conditions	318.15 K	323.15 K
x1 = 0.0583	–	0.302
x1 = 0.1047	–	0.323
x1 = 0.1493	–	0.344
x1 = 0.2021	–	0.371
x1 = 0.2544	–	0.4
x1 = 0.3064	0.465	0.43
x1 = 0.3508	0.496	0.458
x1 = 0.4031	0.535	0.494
x1 = 0.45	0.572	0.527
x1 = 0.5021	0.617	0.568
x1 = 0.5506	0.662	0.609
x1 = 0.6036	0.715	0.656
x1 = 0.6519	0.767	0.703
x1 = 0.701	0.824	0.755
x1 = 0.7521	0.888	0.812
x1 = 0.7985	0.95	0.868
x1 = 0.8501	1.023	0.933
x1 = 0.9006	1.1	1.002
x1 = 0.949	1.178	1.071

CC(O)CN(C)C (stereo not drawn) + O
[1], 323.15 K, 101 kPa
Conditions	viscosity [mPa·s]
x1 = 0.4013	2.496
x1 = 0.4578	2.245
x1 = 0.5049	2.045
x1 = 0.6009	1.683
x1 = 0.7054	1.372
x1 = 0.7955	1.158
x1 = 0.8905	0.983
x1 = 0.9564	0.883

O=C(CO)[C@@H](O)[C@H](O)[C@H](O)CO + O
[1], 100 kPa, x1 = 0.0009
Conditions	viscosity [mPa·s]
298.15 K	0.9294
308.15 K	0.7522
313.15 K	0.6838
318.15 K	0.6246
